Assay results published in PubChem BioAssay AID602393 (Broad Institute, 2012).
Hit rate of the full screen: of about 350,000 compounds, about 7,000 (2%) were called active. This list was built around the results that the source calls inconclusive (neither active nor inactive); the mix of calls is not that of the screen. Rule as the data show it: active = activation above about 40%; inconclusive = no clear call, values can overlap the other calls; inactive = below that.

Assay: raisers of Bmi1 knock-in reporter signal – mouse ES cells, Bmi1 luciferase knock-in, single point, esBAF inhibitor project, primary screen (AID 602393);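 also: 0% = median of the plate's neutral control wells and 100% = double that signal; a rise in the Bmi1 reporter signal indicates esBAF inhibition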
Conditions: 24 h, at 12.5 µM, stronger effect = higher value, 100% = twice the neutral-well signal

Row | Structure (SMILES) | reporter increase
1 | CCOC(=O)C1(Cc2cccc(OC)c2)CCCN(C(=O)c2cc(C)oc2C)C1 (stereo not given) | inconclusive: 40.9%
2 | COc1ccc(Nc2nc(C)cc(C)n2)cc1Cl | inconclusive: 44.8%
3 | C[C@@H]1CN([C@@H](C)CO)C(=O)c2cccc(NC(=O)Nc3ccccc3)c2O[C@@H]1CN(C)CC1CCCCC1 | inactive: -0.651%
4 | N=C1SCC(=O)N1c1nc(-c2ccccc2)cs1 | inconclusive: 40.8%
5 | Cc1ccc(C(=O)/C=C/Nc2ccc([N+](=O)[O-])cc2Br)cc1 | inconclusive: 43.3%
6 | CCOc1ccc(N(CC(=O)Nc2cc(C)cc(C)c2)S(C)(=O)=O)cc1 | inconclusive: 41.9%
7 | Cc1cc(C)c2c(N)c(C(=O)Nc3ccc([N+](=O)[O-])cc3)sc2n1 | inconclusive: 44.2%
8 | CCOC(=O)N1CCN(C(=O)Cn2nc(C)c3sc4ccccc4c3c2=O)CC1 | inactive: -7.15%
9 | C[C@@H]1CN([C@@H](C)CO)C(=O)c2cccc(NC(=O)c3ccncc3)c2O[C@H]1CN(C)S(=O)(=O)c1ccc(Cl)cc1 | inactive: -0.715%
10 | CC(=O)c1sc(NC(=O)c2ccc(Cl)cc2)nc1C | active: 50.8%
11 | O=C(Nc1ccc(Br)cn1)c1ccc2ccccc2c1 | active: 55.7%
12 | COC(=O)Cc1ccc2oc(-c3cccnc3)nc2c1 | inconclusive: 42.2%
13 | COc1ccc(CNc2ccc([N+](=O)[O-])cn2)cc1 | active: 62.6%
14 | COc1ccc(C(=O)CSc2nnn(-c3cccc(NC(C)=O)c3)n2)cc1 | inconclusive: 55.9%
15 | CC[n+]1c(/C=C/c2cc([N+](=O)[O-])ccc2O)ccc2ccccc21 | active: 42.9%
16 | c1ccc(-c2noc(CCC3CCCC3)n2)cc1 | inconclusive: 46.1%
17 | O=C(CCSc1ccc(Cl)cc1)N1CCN(c2ncccn2)CC1 | active: 42.1%
18 | CC(Cc1cccs1)NC(=O)c1cccs1 (stereo not given) | inconclusive: 44%
19 | Nc1nc(-c2ccc(Cl)cc2)nnc1-c1ccc(Br)cc1 | active: 52%
20 | O=C(Nc1cc2nn(-c3ccccc3)nc2cc1Cl)c1ccco1 | inconclusive: 41.4%

Row | Structure (SMILES) | reporter increase
21 | COC(=O)c1ccc(/C=C2\Oc3ccccc3NC2=O)cc1 | inconclusive: 43.6%
22 | O=c1oc2cc(OCc3c(F)cccc3Cl)ccc2cc1-c1ccccn1 | inconclusive: 42.5%
23 | c1ccc(Cc2c(-c3ccco3)nc3c4ccccc4ccn23)cc1 | inconclusive: 41.2%
24 | CS(=O)(=O)N(CCc1ccccc1)CC(=O)Nc1ccccc1 | inactive: 3.86%
25 | O=[N+]([O-])c1cccc(-c2cnc3ccccc3n2)c1 | active: 52.1%
26 | Cc1cccnc1NC(=O)CCCNC(=O)c1ccc(Cl)cc1 | inactive: 3.91%
27 | NS(=O)(=O)c1cccc(NC(=O)Cn2cnc3ccccc3c2=O)c1 | inactive: -8.67%
28 | COc1ccc(NC(=O)c2coc(C)c2)cc1 | active: 74.1%
29 | C[C@H](CO)N1C[C@H](C)[C@H](CN(C)S(=O)(=O)c2ccc(F)cc2)Oc2ccc(NS(=O)(=O)c3ccc(F)cc3)cc2CC1=O | inactive: 3.54%
30 | CCc1ccc(NC(=O)CCc2c(C)nn(-c3ccc(N4CCCCC4)nn3)c2C)cc1 | active: 61.7%
31 | O=C1NC(c2ccccn2)Nc2sc3c(c21)CCC3 (stereo not given) | active: 66.1%
32 | Cc1ccc(-c2cc3ccccc3nc2N)cc1 | active: 46.9%
33 | CCCC(=O)N1CCc2cc(-c3nc(N)sc3C)ccc21 | inconclusive: 41.2%
34 | CN(Cc1ccccc1)Cc1cc(=O)oc2ccccc12 | inconclusive: 42.2%
35 | COc1cccc2cc(C(=O)NCc3ccccn3)c(=O)oc12 | inconclusive: 45.4%
36 | COc1ccccc1NC(=O)c1coc(=O)c(Br)c1 | inconclusive: 38.8%
37 | COc1ccc(N=Nc2c(N)nn(C)c2N)cc1 | active: 44.5%
38 | COc1ccc(NS(=O)(=O)c2ccc3c(c2)n(C)c(=O)n3C)cc1 | inactive: -2.26%
39 | CCOc1ccc(/C=C/C(=O)c2ccccc2)cc1 | inconclusive: 55.5%
40 | COc1ccc(C(=O)n2nc(C)cc2Nc2ccccc2)cc1 | active: 55.4%

Row | Structure (SMILES) | reporter increase
41 | O=C(NCc1ccccc1Cl)c1ccc2ccccc2n1 | inconclusive: 40.9%
42 | COCCN1CCN(C(=O)c2cc(COc3ccc(Cl)cc3OC)on2)CC1 | inconclusive: 50.4%
43 | CCOc1ccc2cc(C#N)c(SCC(=O)OC)nc2c1 | active: 66.4%
44 | O=C(c1ccccc1)c1coc2ccc(O)c(Cl)c12 | inconclusive: 43.5%
45 | CSc1ccccc1OCc1cc(C(=O)NC2CCOC2)no1 (stereo not given) | inconclusive: 41.3%
46 | CC(C)(C)NC(=O)N1CCN(c2nc3ccc(Cl)cc3s2)CC1 | inconclusive: 50.4%
47 | COc1ccc(-n2c(C)nc3c(cnn3-c3ccc(C)c(C)c3)c2=O)cc1 | inconclusive: 40.4%
48 | Oc1ccc(/C=N/Nc2ncc(Cl)cc2Cl)cc1 | active: 44.3%
49 | O=C(Nc1ccccc1)Nc1cccc(Cl)c1 | active: 52.4%
50 | COc1ccc(C(=O)COC(=O)CN2C(=O)C3CC=CCC3C2=O)c(OC)c1 (stereo not given) | inactive: -4.47%
51 | CO[C@H]1CN(C)C(=O)c2ccc(NC(=O)Nc3ccc4c(c3)OCO4)cc2OC[C@@H](C)NC[C@H]1C | inconclusive: 41%
52 | COC(=O)c1c(NC(=O)c2ccco2)sc2c1CCC2 | inactive: 4.96%
53 | CCC(=O)N1C[C@H](C)[C@H](OC)CN(C)C(=O)c2ccc(NC(=O)Nc3ccc(Cl)cc3)cc2OC[C@@H]1C | inactive: -0.465%
54 | COc1ccc(C2=CC(c3sccc3C)n3nnnc3N2)cc1 (stereo not given) | inconclusive: 40.6%
55 | COc1ccc(/C=N/c2c(-c3ccc(OC)cc3)nc3n2CCS3)cc1 | inactive: 16.6%
56 | C[C@H](CO)N1C[C@H](C)[C@@H](CN(C)C)Oc2c(NC(=O)Nc3ccc(C(F)(F)F)cc3)cccc2C1=O | inactive: 19.2%
57 | c1ccc(-n2ncc3c(NCc4ccco4)ncnc32)cc1 | active: 57.2%
58 | Oc1ccccc1-c1nnc(SCCN2CCOCC2)n1Cc1ccccc1 | inconclusive: 47.6%
59 | C=CCn1c(=O)c(C(=O)Nc2ccc(C)cn2)c(O)c2ccccc21 | inconclusive: 44%
60 | Cc1ccc2nc(NC(=O)COC(=O)CSc3nc(C)cc(C)n3)sc2c1 | inconclusive: 42.1%
